Source: PubChem BioAssay AID504332 (National Center for Advancing Translational Sciences (NCATS), 2011)
Hit rate of the full screen: of about 350,000 compounds, about 31,000 (8.9%) were called active. Inconclusive means that the source gave no clear call. Such entries were picked first, then a sample of the others. Calls follow the shape of the dose curve; as a rule, active = well fitted inhibition curve with a large enough effect; inconclusive = small, poorly fitted or top-dose-only effect; inactive = no such curve, though single readings can be large or run the other way. Where the call is inconclusive, the potency comes from a doubtful curve fit.

target: Histone-lysine N-methyltransferase EHMT2 (Homo sapiens) (UniProt Q96KQ7); test: qHTS Assay for Inhibitors of Histone Lysine Methyltransferase G9a; conditions: G9a H3K9 monomethylation, AlphaScreen, 2 h; activity, negative = inhibition: at 59 µM (top of the series) unless noted; also: nearly all actives have a fitted effect of over 75% in size
UniProt Q96KQ7, sequence (Q96KQ7 whole entry, looked up): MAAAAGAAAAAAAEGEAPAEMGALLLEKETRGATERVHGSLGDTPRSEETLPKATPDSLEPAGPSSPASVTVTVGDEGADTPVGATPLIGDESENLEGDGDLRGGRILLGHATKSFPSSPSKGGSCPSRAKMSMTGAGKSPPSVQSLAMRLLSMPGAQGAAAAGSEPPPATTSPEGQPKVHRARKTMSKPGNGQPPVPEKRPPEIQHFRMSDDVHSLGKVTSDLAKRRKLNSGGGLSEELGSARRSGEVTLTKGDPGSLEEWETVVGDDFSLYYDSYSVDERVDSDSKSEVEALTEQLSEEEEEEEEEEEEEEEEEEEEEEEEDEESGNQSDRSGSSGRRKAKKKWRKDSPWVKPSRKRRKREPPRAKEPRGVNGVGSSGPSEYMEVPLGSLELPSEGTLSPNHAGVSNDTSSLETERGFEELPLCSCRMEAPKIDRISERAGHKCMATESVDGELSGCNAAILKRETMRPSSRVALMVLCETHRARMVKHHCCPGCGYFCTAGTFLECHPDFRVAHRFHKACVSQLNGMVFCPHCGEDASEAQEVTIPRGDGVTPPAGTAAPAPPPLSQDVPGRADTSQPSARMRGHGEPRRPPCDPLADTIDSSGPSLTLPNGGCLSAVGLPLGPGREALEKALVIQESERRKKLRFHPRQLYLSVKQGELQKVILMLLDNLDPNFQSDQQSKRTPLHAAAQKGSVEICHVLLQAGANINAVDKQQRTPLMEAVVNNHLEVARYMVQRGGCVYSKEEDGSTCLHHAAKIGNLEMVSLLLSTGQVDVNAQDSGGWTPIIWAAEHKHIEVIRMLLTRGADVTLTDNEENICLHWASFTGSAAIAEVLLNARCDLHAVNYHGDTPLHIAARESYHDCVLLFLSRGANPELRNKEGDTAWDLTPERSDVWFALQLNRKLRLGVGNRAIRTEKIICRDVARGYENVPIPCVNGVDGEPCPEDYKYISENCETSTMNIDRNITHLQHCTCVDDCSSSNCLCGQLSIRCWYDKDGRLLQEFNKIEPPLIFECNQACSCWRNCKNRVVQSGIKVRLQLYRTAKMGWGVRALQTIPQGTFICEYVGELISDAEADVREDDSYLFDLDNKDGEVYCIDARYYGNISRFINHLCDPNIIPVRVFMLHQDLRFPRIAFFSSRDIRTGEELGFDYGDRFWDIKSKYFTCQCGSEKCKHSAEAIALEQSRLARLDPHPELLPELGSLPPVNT
How it was run: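 Compounds were preincubated with 20 nM G9a for 15 min, after which biotinylated H3K9 peptide (500 nM) and SAM (20 uM) started a 2 h room-temperature reaction. Monomethylated product was quantified by antibody-based AlphaScreen chemiluminescence.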
% is scaled to controls: 0 for no effect and ±100 for the full control effect; potency is read from the fitted curve at half-maximal effect; tags tell the direction and shape of the fitted curve.

SMILES | activity, negative = inhibition | Potency
Cc1cc2c(cc1S(=O)(=O)CCC(=O)Nc1cccc(C(F)(F)F)c1)OCC(=O)N2 | inactive: 13.1% [at 0.0925 µM] | 
CC(=O)Nc1ccc(S(=O)(=O)c2c(N)n(CCN3CCOCC3)c3nc4ccccc4nc23)cc1 |  | inconclusive: 50.1 µM [inhibitor, partial curve, poor fit]
CN(C)CCCNC(=O)/C(=C\c1ccc(-c2ccc(Br)cc2)o1)NC(=O)c1ccccc1 |  | inconclusive: 39.8 µM [inhibitor, single point]
CCOc1ccc(NC(=O)N2CC3CCCN3c3ccccc32)cc1 (stereo not given) |  | inconclusive: 11.2 µM [inhibitor, partial curve, poor fit]
Cc1ccc(O)c(C=Nc2ccc3[nH]ncc3c2)c1 |  | inconclusive: 6.31 µM [inhibitor, full curve, poor fit]
CCN(CC)S(=O)(=O)c1ccc(NC(=O)COC(=O)c2cc(S(=O)(=O)Nc3ccc(OC)cc3)ccc2O)cc1 |  | inconclusive: 44.7 µM [inhibitor, partial curve]
NC(=O)c1ccc(-n2nnnc2Oc2ccccc2C(=O)N2CCOCC2)cc1 | inactive: -36.8% [at 12.7 µM] | 
COc1cc(C)c(-c2[nH]ncc2-c2csc(C)n2)c(O)c1 |  | inactive
O=C(Cc1cccs1)Nc1nnc(SCC(=O)NC2CCCCC2)s1 |  | inconclusive: 79.4 µM [inhibitor, single point]
COC(=O)c1cc(NC(=O)c2cc(C(C)(C)C)nn2Cc2ccc(F)cc2)ccc1N1CCOCC1 |  | inconclusive: 79.4 µM [inhibitor, partial curve, poor fit]
CC(=O)N1CCN(c2nnnn2-c2ccccc2)CC1 |  | inactive
Cc1ccc(C(=O)N2C3=C(CCCC3)C(=O)NC23CCCCC3)cc1 |  | inactive
O=C(/C=C/c1ccc(OC(F)F)cc1)OCC(=O)N1CCc2ccccc21 |  | active: 44.7 µM
O=C1CCCc2oc3ccc(NS(=O)(=O)c4cccc5cccnc45)cc3c21 |  | inconclusive: 44.7 µM [inhibitor, partial curve]
COc1ccc(NC(=S)N/N=C/c2cccn2Cc2ccc(F)cc2)cc1 |  | inconclusive: 39.8 µM [inhibitor, partial curve, poor fit]
Cc1ccc(OCCOCCNC(C)(C)C)c([N+](=O)[O-])c1 |  | active: 14.1 µM
COc1ccc(-n2c(CN3CCC(C)CC3)nc3ccc([N+](=O)[O-])cc3c2=O)c(OC)c1 |  | inconclusive: 1.58 µM [inhibitor, full curve, poor fit]
O=C(O)CSc1cc(C(=O)c2cc(F)ccc2O)cn2c(=O)c3c(-c4ccccc4)csc3nc12 |  | active: 50.1 µM
Cc1cc(C)n(-c2nc3ccccc3nc2Nc2ccc3[nH]c(=O)[nH]c3c2)n1 |  | inconclusive: 39.8 µM [inhibitor, partial curve, poor fit]
CCOC(=O)Nc1cccc(Nc2ccccc2)c1 |  | inconclusive: 79.4 µM [inhibitor, single point]
CCCSC1=N/C(=C\c2ccc([N+](=O)[O-])o2)C(=O)S1 |  | inconclusive: 10 µM [inhibitor, full curve, poor fit]
COC/C=C/C1=CC2=CC(=O)C(C)(OC(=O)CCC(=O)OC)C(=O)C2=CO1 (stereo not given) |  | inconclusive: 35.5 µM [inhibitor, single point]
COc1cc(Cn2c(C(=O)O)cc3sccc32)cc(OC)c1OC |  | inconclusive: 28.2 µM [inhibitor, single point]
Cc1cc(CNCc2c(C(=O)N3CCCCCCC3)nc3ccc(Cl)cn23)nn1C |  | inactive

SMILES | activity, negative = inhibition | Potency
CCOC(=O)c1[nH]c2c(c1C)C(=O)CC(c1ccc(N(C)C)cc1)C2 (stereo not given) |  | inconclusive: 3.16 µM [inhibitor, full curve]
COc1ccc(/C=C2\SC(=O)N(CCNC(=O)CCS(=O)(=O)c3ccc(C)cc3)C2=O)cc1 |  | inconclusive: 39.8 µM [inhibitor, single point]
CCC(C)(C)n1nnnc1C(c1cc2cc3c(cc2[nH]c1=O)OCO3)N1CCN(C)CC1 (stereo not given) |  | inactive
COC(=O)c1ccc2c(c1)NC(=O)c1ccccc1S2 |  | inconclusive: 4.47 µM [inhibitor, full curve, poor fit]
O=C(CC(Nc1ccccc1Cl)C(=O)OCC(=O)c1cccs1)c1ccccc1 (stereo not given) |  | active: 10 µM
CCCNC(=O)CCc1c(C)nc2nc(CNC(=O)c3ccccc3)nn2c1C |  | inactive
Cc1ccc(NS(=O)(=O)c2cc(C(=O)NCc3cccnc3)ccc2C)cc1 |  | inconclusive: 39.8 µM [inhibitor, partial curve, poor fit]
COc1cc2ncnc(NCc3ccccc3F)c2cc1OC |  | inconclusive: 3.55 µM [inhibitor, full curve, poor fit]
CC1CCN(CCCCOc2ccccc2Br)CC1 |  | active: 10 µM
OCCN(CCO)c1nc(-c2ccccc2)nc2c1oc1ccccc12 |  | inconclusive: 89.1 µM [inhibitor, single point]
CCOC(=O)c1ccc(NC(=O)CS(=O)(=O)Cc2nc(-c3ccc(C)cc3)oc2C)cc1 |  | inactive
O=C(C1=C[C@@H](c2ccc(Br)cc2)C[C@@H](OCc2ccc(CO)cc2)O1)N1CCN(Cc2ccc3c(c2)OCO3)CC1 | inconclusive: -66.2% [inhibitor] | 
CCc1ccc(C(=O)CSc2nc3cc(S(=O)(=O)N4CCOCC4)ccc3n2CC)cc1 |  | active: 44.7 µM
O=C(Nc1nnc(-c2ccncc2)o1)C1CCCCC1 |  | inconclusive: 89.1 µM [inhibitor, single point]
CCOC(=O)C1CCN(C(c2cc3ccc(C)cc3[nH]c2=O)c2nnnn2C2CCCCC2)CC1 (stereo not given) |  | active: 22.4 µM
CC(=O)c1ccc(S(=O)(=O)NCc2ccc(C(=O)NCC(c3ccccc3)N(C)C)cc2)cc1 (stereo not given) |  | inconclusive: 79.4 µM [inhibitor, single point]
CCCOC(=O)c1c(NC(=O)CCCn2nc([N+](=O)[O-])cc2C)sc(C(=O)OC)c1C |  | inconclusive: 70.8 µM [inhibitor, single point]
CN(C)c1ccc(NS(=O)(=O)c2ccc(Cl)cc2)cc1 |  | active: 3.55 µM
O=C1/C(=C\c2ccc(O)c(O)c2)N=C2CCCCCN12 |  | active: 28.2 µM
CCCCOC(=O)NC(NCC(O)c1ccccc1)(C(F)(F)F)C(F)(F)F (stereo not given) |  | inconclusive: 89.1 µM [inhibitor, single point]
Cc1cccc(NC(=O)c2cc([N+](=O)[O-])ccc2Cl)c1O | inconclusive: -58.7% [inhibitor] | 
CC(=O)N1CCN(CCN(CC2C(C)C=C(C)CC2C)C(C)=O)CC1 (stereo not given) | inconclusive: -102% [inhibitor] | 
O=C(C1=C(O)C(=O)N(CCN2CCOCC2)C1c1ccncc1)c1ccco1 (stereo not given) | inconclusive: -72.8% [inhibitor] | 
CCOc1ccc(NC(=O)C(CC)n2nc(C)c3c(C)n(-c4ccccc4)nc3c2=O)cc1 (stereo not given) |  | inconclusive: 1.58 µM [inhibitor, partial curve, poor fit]

SMILES | activity, negative = inhibition | Potency
CC(=O)Nc1ccc(NS(=O)(=O)c2ccc(CN3C(=O)c4cccnc4C3=O)cc2)cc1 |  | inactive
CCCCc1cc(=O)oc2c(C)c(OCC(=O)N3CCC(C(=O)O)(c4ccccc4)CC3)ccc12 |  | active: 3.16 µM
CCOC(=O)c1nc[nH]c1C |  | inconclusive: 22.4 µM [inhibitor, single point]
CC(=O)c1cccc(NC(=O)c2cccc(NC(=O)c3ccco3)c2)c1 |  | active: 44.7 µM
C/C(=N\NC(=O)c1ccncc1)c1cccs1 |  | inactive
CC(=O)Cc1nsc(NC(=O)c2ccc(-c3cc(Cl)ccc3Cl)o2)n1 |  | inactive
N#Cc1ccc(-c2csc(NC(=O)c3ccc(N4C(=O)CCC4=O)cc3)n2)cc1 |  | inactive
CCn1c2ccccc2c2cc(CN3CCN(Cc4cccc(Cl)c4)CC3)ccc21 |  | inconclusive: 1.58 µM [inhibitor, full curve, poor fit]
COc1ccc(/C=N/S(=O)(=O)CCc2ccccc2)c(OC)c1 |  | inactive
Cc1cc(NC(=NC2CC2)c2ccccc2)n(-c2ccccc2)n1 |  | inconclusive: 44.7 µM [inhibitor, partial curve, poor fit]
Cc1c(NC(=O)CSc2nnc3sc4ccccc4n23)c(=O)n(-c2ccccc2)n1C |  | inconclusive: 31.6 µM [inhibitor, single point]
CC(C)c1ccc(S(=O)(=O)N2CCN(C(=O)C3CCN(C(=O)c4ccc(F)cc4)CC3)CC2)cc1 |  | inconclusive: 89.1 µM [inhibitor, single point]
COc1cc(OC)c(NC(=O)Nc2ccc3c(c2)N(C)C(=O)c2ccccc2S3)cc1Cl |  | inactive
COC(=O)c1cn(NC(=O)COc2ccc(Cl)cc2)c(=O)c2ccccc12 |  | inconclusive: 89.1 µM [inhibitor, single point]
O=C(COc1ccccc1)NCC(=O)N1CCCC1 |  | inactive
Cc1cc(Cl)ccc1NC(=O)CSc1nc2c(c(=O)[nH]1)CCC2 |  | inconclusive: 31.6 µM [inhibitor, partial curve, poor fit]
O=C(/C=C/c1cccs1)N1CCN(c2ccc(O)cc2)CC1 |  | active: 7.94 µM
COc1cc2c(cc1OC)-c1cc(Nc3cccc(F)c3)nc(=O)n1CC2 |  | inactive
Cc1ccc(Cl)cc1N1CCN(c2nc3ccccc3c3nc(-c4cccnc4)nn23)CC1 |  | inconclusive: 4.47 µM [inhibitor, partial curve, poor fit]
COc1ccc(-c2csc(C)n2)cc1 |  | inactive
CCOc1ccccc1-n1nnnc1SCC(=O)OC |  | inactive
Cc1nnc(SCC(=O)Nc2ccc(Cl)cn2)[nH]c1=O |  | inconclusive: 28.2 µM [inhibitor, single point]
